# Experimental data reported in the supplement of paper PMC8728848.
# Some of the results follow.
# B1: HPA (Helix pomatia), Q2F1K8 (protein)
# chain: MQAFYSGLLLLCVVAFAAAQRVQSGKIDCGNDAGWAKVPSDDPGRDNTRELAKNITFASPYCRPPVVLLSITQLDVEQSQNLRVIARLYSVSPTGFKASCYTWHNTKVYSMSISWISIENY
# Tests used:
# Experiment in all cases: glycan array binding signal (z-score within array); higher = stronger binding
# Conditions in all cases: glycan notation: IUPAC condensed, linker removed
# [1] = biological target: Gal(b1-4)GlcNAc(b1-3)Gal(b1-4)GlcNAc(b1-2)[Gal(b1-4)GlcNAc(b1-3)Gal(b1-4)GlcNAc(b1-6)]Man(a1-6)[Gal(b1-4)GlcNAc(b1-3)Gal(b1-4)GlcNAc(b1-2)Man(a1-3)]Man(b1-4)GlcNAc(b1-4)GlcNAc
# Summary of the method: (§1)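 From the Consortium for Functional Glycomics database, 3228 arrays were curated, keeping only those whose protein sequence was available. Binding is given as a within-array Z-score averaged across arrays sharing a protein sequence and across linkers. Negative Z-scores can be read as non-binding.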
# [2] = biological target: Gal(b1-4)GlcNAc(b1-3)Gal(b1-4)GlcNAc(b1-2)[Gal(b1-4)GlcNAc(b1-3)Gal(b1-4)GlcNAc(b1-6)]Man(a1-6)[Gal(b1-4)GlcNAc(b1-3)Gal(b1-4)GlcNAc(b1-2)Man(a1-3)]Man(b1-4)GlcNAc(b1-4)[Fuc(a1-6)]GlcNAc
# Summary of the method: as §1
# [3] = biological target: Gal(b1-4)GlcNAc(b1-3)Gal(b1-4)GlcNAc(b1-3)Gal(b1-4)GlcNAc
# Summary of the method: as §1
# [4] = biological target: Gal(b1-4)GlcNAc(b1-3)Gal(b1-4)GlcNAc(b1-3)Gal(b1-4)GlcNAc(b1-2)Man(a1-3)[Gal(b1-4)GlcNAc(b1-3)Gal(b1-4)GlcNAc(b1-3)Gal(b1-4)GlcNAc(b1-2)Man(a1-6)]Man(b1-4)GlcNAc(b1-4)GlcNAc
# Summary of the method: as §1
# [5] = biological target: Gal(b1-4)GlcNAc(b1-3)Gal(b1-4)GlcNAc(b1-3)Gal(b1-4)GlcNAc(b1-2)Man(a1-3)[Gal(b1-4)GlcNAc(b1-3)Gal(b1-4)GlcNAc(b1-3)Gal(b1-4)GlcNAc(b1-2)Man(a1-6)]Man(b1-4)GlcNAc(b1-4)[Fuc(a1-6)]GlcNAc
# Summary of the method: as §1
# [6] = biological target: Gal(b1-4)GlcNAc(b1-3)Gal(b1-4)GlcNAc(b1-3)Gal(b1-4)GlcNAc(b1-2)[Gal(b1-4)GlcNAc(b1-3)Gal(b1-4)GlcNAc(b1-3)Gal(b1-4)GlcNAc(b1-6)]Man(a1-6)[Gal(b1-4)GlcNAc(b1-3)Gal(b1-4)GlcNAc(b1-3)Gal(b1-4)GlcNAc(b1-2)Man(a1-3)]Man(b1-4)GlcNAc(b1-4)[Fuc(a1-6)]GlcNAc
# Summary of the method: as §1
# [7] = biological target: Gal(b1-4)GlcNAc(b1-3)Gal(b1-4)GlcNAc(b1-3)Gal(b1-4)GlcNAc(b1-3)Gal(b1-4)GlcNAc(b1-2)Man(a1-3)[Gal(b1-4)GlcNAc(b1-3)Gal(b1-4)GlcNAc(b1-3)Gal(b1-4)GlcNAc(b1-3)Gal(b1-4)GlcNAc(b1-2)Man(a1-6)]Man(b1-4)GlcNAc(b1-4)GlcNAc
# Summary of the method: as §1
# [8] = biological target: Gal(b1-4)GlcNAc(b1-3)Gal(b1-4)GlcNAc(b1-3)Gal(b1-4)GlcNAc(b1-3)Gal(b1-4)GlcNAc(b1-2)Man(a1-3)[Gal(b1-4)GlcNAc(b1-3)Gal(b1-4)GlcNAc(b1-3)Gal(b1-4)GlcNAc(b1-3)Gal(b1-4)GlcNAc(b1-2)Man(a1-6)]Man(b1-4)GlcNAc(b1-4)[Fuc(a1-6)]GlcNAc
# Summary of the method: as §1
# [9] = biological target: Gal(b1-4)GlcNAc(b1-3)Gal(b1-4)GlcNAc(b1-3)Gal(b1-4)GlcNAc(b1-3)Gal(b1-4)GlcNAc(b1-2)[Gal(b1-4)GlcNAc(b1-3)Gal(b1-4)GlcNAc(b1-3)Gal(b1-4)GlcNAc(b1-3)Gal(b1-4)GlcNAc(b1-6)]Man(a1-6)[Gal(b1-4)GlcNAc(b1-3)Gal(b1-4)GlcNAc(b1-3)Gal(b1-4)GlcNAc(b1-3)Gal(b1-4)GlcNAc(b1-2)Man(a1-3)]Man(b1-4)GlcNAc(b1-4)[Fuc(a1-6)]GlcNAc
# Summary of the method: as §1
# [10] = biological target: Gal(b1-4)GlcNAc(b1-3)Gal(b1-4)GlcNAc(b1-3)Gal(b1-4)GlcNAc(b1-3)Gal(b1-4)GlcNAc(b1-3)Gal(b1-4)GlcNAc(b1-2)Man(a1-3)[Gal(b1-4)GlcNAc(b1-3)Gal(b1-4)GlcNAc(b1-3)Gal(b1-4)GlcNAc(b1-3)Gal(b1-4)GlcNAc(b1-3)Gal(b1-4)GlcNAc(b1-2)Man(a1-6)]Man(b1-4)GlcNAc(b1-4)GlcNAc
# Summary of the method: as §1
# [11] = biological target: Gal(b1-4)GlcNAc(b1-3)Gal(b1-4)GlcNAc(b1-3)Gal(b1-4)GlcNAc(b1-3)Gal(b1-4)GlcNAc(b1-3)Gal(b1-4)GlcNAc(b1-2)Man(a1-3)[Gal(b1-4)GlcNAc(b1-3)Gal(b1-4)GlcNAc(b1-3)Gal(b1-4)GlcNAc(b1-3)Gal(b1-4)GlcNAc(b1-3)Gal(b1-4)GlcNAc(b1-2)Man(a1-6)]Man(b1-4)GlcNAc(b1-4)[Fuc(a1-6)]GlcNAc
# Summary of the method: as §1
# [12] = biological target: Gal(b1-4)GlcNAc(b1-3)Gal(b1-4)GlcNAc(b1-3)Gal(b1-4)GlcNAc(b1-3)Gal(b1-4)GlcNAc(b1-3)Gal(b1-4)GlcNAc(b1-2)[Gal(b1-4)GlcNAc(b1-3)Gal(b1-4)GlcNAc(b1-3)Gal(b1-4)GlcNAc(b1-3)Gal(b1-4)GlcNAc(b1-3)Gal(b1-4)GlcNAc(b1-6)]Man(a1-6)[Gal(b1-4)GlcNAc(b1-3)Gal(b1-4)GlcNAc(b1-3)Gal(b1-4)GlcNAc(b1-3)Gal(b1-4)GlcNAc(b1-3)Gal(b1-4)GlcNAc(b1-2)Man(a1-3)]Man(b1-4)GlcNAc(b1-4)[Fuc(a1-6)]GlcNAc
# Summary of the method: as §1
# [13] = biological target: Gal(b1-4)GlcNAc(b1-3)Gal(b1-4)GlcNAc(b1-3)Gal(b1-4)GlcNAc(b1-3)Gal(b1-4)GlcNAc(b1-3)Gal(b1-4)GlcNAc(b1-3)Gal(b1-4)GlcNAc(b1-2)Man(a1-3)[Gal(b1-4)GlcNAc(b1-3)Gal(b1-4)GlcNAc(b1-3)Gal(b1-4)GlcNAc(b1-3)Gal(b1-4)GlcNAc(b1-3)Gal(b1-4)GlcNAc(b1-3)Gal(b1-4)GlcNAc(b1-2)Man(a1-6)]Man(b1-4)GlcNAc(b1-4)GlcNAc
# Summary of the method: as §1
# [14] = biological target: Gal(b1-4)GlcNAc(b1-3)Gal(b1-4)GlcNAc(b1-3)GalNAc
# Summary of the method: as §1
# [15] = biological target: Gal(b1-4)GlcNAc(b1-3)Gal(b1-4)GlcNAc(b1-3)[Gal(b1-4)GlcNAc(b1-3)Gal(b1-4)GlcNAc(b1-6)]GalNAc
# Summary of the method: as §1
# [16] = biological target: Gal(b1-4)GlcNAc(b1-3)Gal(b1-4)GlcNAc(b1-6)[Gal(b1-3)]GalNAc
# Summary of the method: as §1
# [17] = biological target: Gal(b1-4)GlcNAc(b1-3)Gal(b1-4)[Fuc(a1-3)]GlcNAc(b1-3)Gal(b1-4)[Fuc(a1-3)]GlcNAc
# Summary of the method: as §1
# [18] = biological target: Gal(b1-4)GlcNAc(b1-3)GalNAc
# Summary of the method: as §1
# [19] = biological target: Gal(b1-4)GlcNAc(b1-3)[Fuc(a1-3)GlcNAc(b1-6)]Gal(b1-4)Glc
# Summary of the method: as §1
# [20] = biological target: Gal(b1-4)GlcNAc(b1-3)[Gal(b1-4)GlcNAc(b1-6)]Gal(b1-4)GlcNAc
# Summary of the method: as §1
# [21] = biological target: Gal(b1-4)GlcNAc(b1-3)[Gal(b1-4)GlcNAc(b1-6)]GalNAc
# Summary of the method: as §1
# [22] = biological target: Gal(b1-4)GlcNAc(b1-3)[GlcNAc(b1-6)]Gal(b1-4)GlcNAc
# Summary of the method: as §1
binder,measurement,setting,value
B1,glycan array binding signal (z-score),[1],-0.068
same,glycan array binding signal (z-score),[2],0.032
same,glycan array binding signal (z-score),[3],-0.2
same,glycan array binding signal (z-score),[4],1.39
same,glycan array binding signal (z-score),[5],0.137
same,glycan array binding signal (z-score),[6],0.257
same,glycan array binding signal (z-score),[7],-0.082
same,glycan array binding signal (z-score),[8],0.15
same,glycan array binding signal (z-score),[9],-0.055
same,glycan array binding signal (z-score),[10],-0.076
same,glycan array binding signal (z-score),[11],0.027
same,glycan array binding signal (z-score),[12],0.604
same,glycan array binding signal (z-score),[13],-0.158
same,glycan array binding signal (z-score),[14],0.395
same,glycan array binding signal (z-score),[15],0.563
same,glycan array binding signal (z-score),[16],0.365
same,glycan array binding signal (z-score),[17],-0.198
same,glycan array binding signal (z-score),[18],-0.178
same,glycan array binding signal (z-score),[19],-0.127
same,glycan array binding signal (z-score),[20],-0.259
same,glycan array binding signal (z-score),[21],-0.304
same,glycan array binding signal (z-score),[22],-0.26
